Measured values published in PubChem BioAssay AID1347071 (National Center for Advancing Translational Sciences (NCATS), 2019).
The whole screen tested about 410,000 compounds, of which about 260 (0.063%) were called active. This list was built around the results that the source calls inconclusive (neither active nor inactive); the mix of calls is not that of the screen. Calls come from the whole dose curve; as a rule, active = well fitted activation curve with a large enough effect; inconclusive = small, poorly fitted or top-dose-only effect; inactive = no such curve, though single readings can be large or run the other way. No potency is given beside an inconclusive call; the fits are too rough.

Assay: qHTS for compounds that reverse cellular toxicity of Amyloid beta (A-beta) peptide in yeast: Primary Screen; note: nearly all actives have a fitted effect of over 55% in size
Settings: yeast expressing A-beta42, growth rescue, OD600, 48 h; growth rescue: at 46.1 µM (top of the series), 0% DMSO, 100% iron-clioquinol control
In short: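 Yeast A-beta toxicity model in growth medium with pinned compounds, 48 h at 30 C; growth read as absorbance at 600 nm. Normalized to FeCl3/clioquinol equimolar mix (positive) and DMSO (negative).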
Potency is the fitted concentration of half-maximal effect; tags give direction and shape of the fitted curve.

Row | Compound | Potency | growth rescue
1 | C/C(N)=C(/C#N)C(=O)COC(=O)c1ccccc1Cc1ccccc1 | inconclusive [activator, partial curve, poor fit] | –
2 | COCCCn1c2nc3ccccc3nc2c2c(=O)n(CC3CCCO3)cnc21 (stereo not drawn) | inactive | –
3 | Cc1ccc(Cl)cc1NC(=O)c1cccc(OC(F)F)c1 | inconclusive [activator, full curve, poor fit] | –
4 | CCC(Sc1ccc2nnc(-c3ccc(F)cc3)n2n1)C(=O)OC (stereo not drawn) | inconclusive [activator, full curve] | –
5 | CCCCNC(=S)NNc1c(Cl)cc(Cl)cc1Cl | inconclusive [activator, partial curve, poor fit] | –
6 | CC1=C(C(=O)Nc2cccc(F)c2)C2(CCCCC2)OC1=O | inconclusive [activator, partial curve, poor fit] | –
7 | CCCN(CCC)C(=O)CSc1nc2n[nH]c(C)c2c(=N)n1-c1ccc(OCC)cc1 | inconclusive [activator, partial curve, poor fit] | –
8 | COc1ccccc1-c1oc2ccccc2c1C#CCCCCO | inconclusive [activator, single point] | –
9 | CC(C)CCNC(=S)Nc1ccc(Br)cc1 | inactive | –
10 | COc1ccc(C)cc1NC1(c2ccccc2)C(=O)c2ccccc2C1=O | inconclusive [activator, partial curve, poor fit] | –
11 | Cc1ccccc1NC(=O)c1sc2nc3n(c(=O)c2c1C)N=C(c1ccccc1)CS3 | inactive | –
12 | CC1CCN(S(=O)(=O)c2ccc3nc(Nc4cccc(F)c4)ccc3c2)CC1 | inactive | –
13 | Cc1nn(Cc2cccc(C(=O)Nn3cc([N+](=O)[O-])cn3)c2)c(C)c1[N+](=O)[O-] | inconclusive [activator, partial curve] | –
14 | O=C(Nc1ccc2ccccc2n1)c1ccccc1Br | – | inconclusive: -38.4% [activator]
15 | O=C(NCc1cn(-c2ccccc2)nc1-c1ccc(F)cc1)c1cccc([N+](=O)[O-])c1 | inconclusive [activator, full curve, poor fit] | –
16 | O=C(Cn1cc(SCc2ccc(Cl)cc2)c2ccccc21)N1CCOCC1 | inconclusive [activator, partial curve] | –
17 | COCc1cc(=O)n2[nH]c(C)cc2n1 | inactive | –
18 | O=C(COC(=O)Cc1cccc(C(F)(F)F)c1)NC(=O)NC1CCCC1 | inconclusive [activator, partial curve, poor fit] | –
19 | CC(CCc1ccccc1)NC(=S)NC1CCCCC1 (stereo not drawn) | inconclusive [activator, partial curve] | –
20 | CCOc1ccc(NC(=O)c2ccc(NC(=O)c3cn4c5c(c(N6CCN(C)CC6)c(F)cc5c3=O)OCC4C)cc2)cc1 (stereo not drawn) | inconclusive [activator, single point] | –
21 | O=C1c2oc3ccccc3c(=O)c2C(c2cccc(Br)c2)N1Cc1ccco1 (stereo not drawn) | inconclusive [activator, partial curve, poor fit] | –
22 | COc1ccccc1NC(=S)NCc1ccccc1 | inconclusive [activator, single point] | –

Row | Compound | Potency | growth rescue
23 | COC(=O)c1ccccc1NC(=O)Cn1cnc2cc(C)c(C)cc21 | inconclusive [activator, single point] | –
24 | COc1cc(OC)c2c(c1)S(=O)(=O)C(c1ccccc1)=C2N | active: 15.8 µM | –
25 | Cc1nnc(NC(=O)c2ccc(S(=O)(=O)N3CCCCCC3)cc2)o1 | inconclusive [activator, single point] | –
26 | O=C(COc1cccc2ccccc12)NNC(=O)c1cccs1 | inactive | –
27 | COc1cc(CN2CCN(S(=O)(=O)c3ccccc3)CC2)cc(OC)c1OC | – | inconclusive: -37.6% [activator]
28 | COc1cc2c(cc1OC)C(C(=O)NCCN1CCOCC1)C1c3ccccc3CCN1C2=O (stereo not drawn) | inactive | –
29 | CN(NC(=O)c1ccccc1)c1nc2ccccc2nc1C(F)(F)F | inconclusive [activator, single point] | –
30 | FC(F)(F)c1cc(-c2ccco2)nc(NCc2ccc(Cl)cc2)n1 | inconclusive [activator, single point] | –
31 | NC1=NN=C(N2N=C(c3ccco3)CC2(O)C(F)(F)F)n2ncnc2C1 (stereo not drawn) | inactive | –
32 | Cc1cccc(NC(=S)NC(C)CCc2ccccc2)c1 (stereo not drawn) | inconclusive [activator, partial curve, poor fit] | –
33 | C=CCNC(=S)N/N=C(\C)c1ccc(OC)cc1 | inconclusive [activator, partial curve, poor fit] | –
34 | Cc1ccccc1Nc1c(-c2ccc(N3CCOCC3)cc2)nc2cccc(C)n12 | inconclusive [activator, single point] | –
35 | Cc1cc(OCc2cc(C(=O)N(C)C(C)c3ccccn3)no2)cc(C)c1Cl (stereo not drawn) | inconclusive [activator, single point] | –
36 | O=C(COC(=O)c1cccc(OC(F)F)c1)NC(=O)NC1CCCCC1 | inconclusive [activator, single point] | –
37 | Cc1ccc(OCCSc2nnc(-c3cccs3)n2C)cc1 | inactive | –
38 | Cc1cc(C2C(C#N)=C(N)SC(N)=C2C#N)c(C)s1 | inconclusive [activator, partial curve, poor fit] | –
39 | C/C(=N\NC(N)=S)c1ccc2c(c1)OCCO2 | inconclusive [activator, partial curve, poor fit] | –
40 | Nc1ccc2c(C(F)(F)F)cc(=O)oc2c1 | inconclusive [activator, single point] | –
41 | CCCN1C(=O)c2[nH]nc(-c3cc(Cl)c(C)cc3O)c2C1c1ccc(O)c(OC)c1 (stereo not drawn) | inconclusive [activator, single point] | –
42 | O=C(Nc1nc2ccc(F)cc2s1)c1ccccn1 | inconclusive [activator, single point] | –
43 | Oc1ccc(-c2csc(Nc3ccccn3)n2)c(O)c1 | inactive | –
